Residue numbers refer to the chain shown, from its start. Some of the results follow.

T1: RBFOX1 RRM (Homo sapiens, UniProt Q9NWB1 109-208)
T1 sequence: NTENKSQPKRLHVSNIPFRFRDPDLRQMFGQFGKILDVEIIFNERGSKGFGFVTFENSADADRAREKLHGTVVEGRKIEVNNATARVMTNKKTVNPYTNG

B1: GUCCCAA (DNA:RNA)
RNA: GGGAGACCGGAAUUCAGAUUGUCCGUCCCAAUUAAAUCCCGUCGUAGCCACCA
DNA 1: CAATCTGAATTCCGGTCTCCC
DNA 2: TGGTGGCTACGACGGGATT
B2: UUCCCCA (DNA:RNA)
RNA: B1 RNA with G25U, A30C
DNA 1: CAATCTGAATTCCGGTCTCCC
DNA 2: TGGTGGCTACGACGGGATT
B3: UUGUUUG (DNA:RNA)
RNA: B1 RNA with G25U, C27G, C28U, C29U, A30U, A31G
DNA 1: CAATCTGAATTCCGGTCTCCC
DNA 2: TGGTGGCTACGACGGGATT
B4: AGAGGAG (DNA:RNA)
RNA: B1 RNA with G25A, U26G, C27A, C28G, C29G, A31G
DNA 1: CAATCTGAATTCCGGTCTCCC
DNA 2: TGGTGGCTACGACGGGATT
B5: CUCUACU (DNA:RNA)
RNA: B1 RNA with G25C, C28U, C29A, A30C, A31U
DNA 1: CAATCTGAATTCCGGTCTCCC
DNA 2: TGGTGGCTACGACGGGATT
B6: CAUAUUG (DNA:RNA)
RNA: GGGAGACCGGAAUUCAGAUUGUCCCAUAUUGUUAAAUCCCGUCGUAGCCACCA
DNA 1: CAATCTGAATTCCGGTCTCCC
DNA 2: TGGTGGCTACGACGGGATT
B7: UGCGUAG (DNA:RNA)
RNA: B6 RNA with C25U, A26G, U27C, A28G, U30A
DNA 1: CAATCTGAATTCCGGTCTCCC
DNA 2: TGGTGGCTACGACGGGATT
B8: ACCGCCC (DNA:RNA)
RNA: B1 RNA with G25A, U26C, C28G, A30C, A31C
DNA 1: CAATCTGAATTCCGGTCTCCC
DNA 2: TGGTGGCTACGACGGGATT
B9: AUUGGUC (DNA:RNA)
RNA: B6 RNA with C25A, A26U, A28G, U29G, G31C
DNA 1: CAATCTGAATTCCGGTCTCCC
DNA 2: TGGTGGCTACGACGGGATT
B10: CUCUGAA (DNA:RNA)
RNA: B1 RNA with G25C, C28U, C29G
DNA 1: CAATCTGAATTCCGGTCTCCC
DNA 2: TGGTGGCTACGACGGGATT
B11: UAAAGAU (DNA:RNA)
RNA: B6 RNA with C25U, U27A, U29G, U30A, G31U
DNA 1: CAATCTGAATTCCGGTCTCCC
DNA 2: TGGTGGCTACGACGGGATT
B12: CUGCACU (DNA:RNA)
RNA: B1 RNA with G25C, C27G, C29A, A30C, A31U
DNA 1: CAATCTGAATTCCGGTCTCCC
DNA 2: TGGTGGCTACGACGGGATT
B13: UUAAUUG (DNA:RNA)
RNA: B6 RNA with C25U, A26U, U27A
DNA 1: CAATCTGAATTCCGGTCTCCC
DNA 2: TGGTGGCTACGACGGGATT
B14: GUCUUUA (DNA:RNA)
RNA: B1 RNA with C28U, C29U, A30U
DNA 1: CAATCTGAATTCCGGTCTCCC
DNA 2: TGGTGGCTACGACGGGATT
B15: GUUCUUG (DNA:RNA)
RNA: B6 RNA with C25G, A26U, A28C
DNA 1: CAATCTGAATTCCGGTCTCCC
DNA 2: TGGTGGCTACGACGGGATT
B16: CUUUUAA (DNA:RNA)
RNA: B6 RNA with A26U, A28U, U30A, G31A
DNA 1: CAATCTGAATTCCGGTCTCCC
DNA 2: TGGTGGCTACGACGGGATT
B17: ACAGUAC (DNA:RNA)
RNA: B6 RNA with C25A, A26C, U27A, A28G, U30A, G31C
DNA 1: CAATCTGAATTCCGGTCTCCC
DNA 2: TGGTGGCTACGACGGGATT
B18: ACUGCUU (DNA:RNA)
RNA: B6 RNA with C25A, A26C, A28G, U29C, G31U
DNA 1: CAATCTGAATTCCGGTCTCCC
DNA 2: TGGTGGCTACGACGGGATT
B19: UACCGUG (DNA:RNA)
RNA: B6 RNA with C25U, U27C, A28C, U29G
DNA 1: CAATCTGAATTCCGGTCTCCC
DNA 2: TGGTGGCTACGACGGGATT
B20: AUAAUAG (DNA:RNA)
RNA: B6 RNA with C25A, A26U, U27A, U30A
DNA 1: CAATCTGAATTCCGGTCTCCC
DNA 2: TGGTGGCTACGACGGGATT
B21: AGUGCCA (DNA:RNA)
RNA: B1 RNA with G25A, U26G, C27U, C28G, A30C
DNA 1: CAATCTGAATTCCGGTCTCCC
DNA 2: TGGTGGCTACGACGGGATT
B22: UAUCGAG (DNA:RNA)
RNA: B6 RNA with C25U, A28C, U29G, U30A
DNA 1: CAATCTGAATTCCGGTCTCCC
DNA 2: TGGTGGCTACGACGGGATT
B23: UGUACAG (DNA:RNA)
RNA: B6 RNA with C25U, A26G, U29C, U30A
DNA 1: CAATCTGAATTCCGGTCTCCC
DNA 2: TGGTGGCTACGACGGGATT
B24: AUCCCUA (DNA:RNA)
RNA: B1 RNA with G25A, A30U
DNA 1: CAATCTGAATTCCGGTCTCCC
DNA 2: TGGTGGCTACGACGGGATT
B25: GCUCGUA (DNA:RNA)
RNA: B1 RNA with U26C, C27U, C29G, A30U
DNA 1: CAATCTGAATTCCGGTCTCCC
DNA 2: TGGTGGCTACGACGGGATT
B26: GGAAGGA (DNA:RNA)
RNA: B1 RNA with U26G, C27A, C28A, C29G, A30G
DNA 1: CAATCTGAATTCCGGTCTCCC
DNA 2: TGGTGGCTACGACGGGATT
B27: UUGAGCG (DNA:RNA)
RNA: B6 RNA with C25U, A26U, U27G, U29G, U30C
DNA 1: CAATCTGAATTCCGGTCTCCC
DNA 2: TGGTGGCTACGACGGGATT
B28: CCGCACC (DNA:RNA)
RNA: B6 RNA with A26C, U27G, A28C, U29A, U30C, G31C
DNA 1: CAATCTGAATTCCGGTCTCCC
DNA 2: TGGTGGCTACGACGGGATT
B29: UGCCGUA (DNA:RNA)
RNA: B1 RNA with G25U, U26G, C29G, A30U
DNA 1: CAATCTGAATTCCGGTCTCCC
DNA 2: TGGTGGCTACGACGGGATT
B30: UUUUACC (DNA:RNA)
RNA: B6 RNA with C25U, A26U, A28U, U29A, U30C, G31C
DNA 1: CAATCTGAATTCCGGTCTCCC
DNA 2: TGGTGGCTACGACGGGATT
B31: UCGUCUU (DNA:RNA)
RNA: B6 RNA with C25U, A26C, U27G, A28U, U29C, G31U
DNA 1: CAATCTGAATTCCGGTCTCCC
DNA 2: TGGTGGCTACGACGGGATT

The test has as its target T1, RBFOX1 RRM. In words: EMSA; HiTS-Eq, 1 nM pool, 10 min; buffer printed only for the single-RNA assays: 10 mM Tris pH 7.5, 150 mM NaCl, 3.4 mM EDTA, 0.001% NP-40, 30 C. The following applies: tags: His6 N-terminal (pET28a); label: 5' 32P. A digest of the protocol: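 These values rest on relative association constants, computed from read-count changes of each RNA species versus the control reaction and normalised to the cognate motif. Reads came from free RNA recovered by 8% native PAGE after purified RbFox RRM (wild type or mutant) at increasing concentrations was equilibrated for 10 min in 50 µL with 1 nM of a 5′-radiolabelled pool with 7 randomized nucleotides and DNA-annealed flanks.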
Turning to B1, the binding signal is 0.00597 KA relative to UGCAUGU.
Regarding B2, the binding signal is 0.00342 KA relative to UGCAUGU.
With B3, the binding signal was 0.0392 KA relative to UGCAUGU.
Regarding B4, the binding signal was 0.00641 KA relative to UGCAUGU.
In the case of B5, the binding signal is 0.00629 KA relative to UGCAUGU.
Turning to B6, the binding signal is 0.00447 KA relative to UGCAUGU.
Regarding B7, the binding signal is 0.023 KA relative to UGCAUGU.
With B8, the binding signal is 0.00162 KA relative to UGCAUGU.
In the case of B9, the binding signal was 0.0211 KA relative to UGCAUGU.
B10: the binding signal is 0.0135 KA relative to UGCAUGU.
With B11 the figure was 0.006 KA relative to UGCAUGU; with B12, 0.014 KA relative to UGCAUGU; with B13, 0.0141 KA relative to UGCAUGU.
Turning to B14, the binding signal is 0.0114 KA relative to UGCAUGU.
With B15 the figure was 0.0212 KA relative to UGCAUGU; with B16, 0.00804 KA relative to UGCAUGU.
Take B17: the binding signal is 0.00284 KA relative to UGCAUGU.
For the molecule B18, the binding signal is 0.00868 KA relative to UGCAUGU.
Regarding B19, the binding signal was 0.0094 KA relative to UGCAUGU.
B20: the binding signal was 0.00154 KA relative to UGCAUGU.
Regarding B21, the binding signal was 0.00651 KA relative to UGCAUGU.
With B22 the figure was 0.0122 KA relative to UGCAUGU; with B23, 0.015 KA relative to UGCAUGU; with B24, 0.000926 KA relative to UGCAUGU.
Consider B25, for which the binding signal is 0.0181 KA relative to UGCAUGU.
With B26 the figure was 0.00957 KA relative to UGCAUGU; with B27, 0.026 KA relative to UGCAUGU.
Consider B28, for which the binding signal is 0.00593 KA relative to UGCAUGU.
On to B29, for which the binding signal is 0.0135 KA relative to UGCAUGU.
The same measure for B30: 0.00694 KA relative to UGCAUGU; for B31: 0.0148 KA relative to UGCAUGU.

These data come from article PMC9911399, “Two distinct binding modes provide the RNA-binding protein RbFox with extraordinary sequence specificity”.
